Assay results as given in the BET-seq Pho4 binding data (Le et al. 2018).
The list shows a part of the results. Values were computed here from the reads of four pooled replicates and scatter widely.

The sequences below were run against T1, Pho4 (S. cerevisiae) (UniProt P07270) (assay: relative binding free energy (BET-seq); higher = weaker binding). Conditions: reference: library average.
T1 sequence: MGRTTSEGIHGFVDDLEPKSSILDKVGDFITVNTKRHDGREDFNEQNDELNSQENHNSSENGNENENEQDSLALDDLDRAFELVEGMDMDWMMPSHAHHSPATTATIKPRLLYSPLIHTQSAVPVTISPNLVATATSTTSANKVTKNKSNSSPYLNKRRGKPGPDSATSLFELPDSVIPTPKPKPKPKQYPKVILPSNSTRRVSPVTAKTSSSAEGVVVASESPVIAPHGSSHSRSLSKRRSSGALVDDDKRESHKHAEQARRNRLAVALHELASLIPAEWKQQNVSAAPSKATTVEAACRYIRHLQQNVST

Sequence | relative binding free energy [kcal/mol]
AGTATCACGTGTCATG | 0.12
GTGGGCACGTGCGTCT | -0.08
CTATGCACGTGGCTGT | -0.11
GTGTCCACGTGTTCTT | 0.18
AGAATCACGTGGGGTT | 0.13
GGTGTCACGTGGCGGG | 0.24
GATATCACGTGGGATG | -0.02
GATTACACGTGTATTA | 0.22
GTTCACACGTGCTGGT | 0.11
TGAGGCACGTGAGGGA | 0.23
ATGATCACGTGGTTAT | 0.22
TATTGCACGTGTCGAA | 0.07
TATAACACGTGTGGCT | -0.06
ATAATCACGTGTATTA | 0.18
AGGGACACGTGGAAAG | 0.19
GGTTGCACGTGTTGGG | 0.06
GTGGGCACGTGGTATT | -0.08
TGGTACACGTGAGCGT | 0.17
GTGGACACGTGTTTAT | 0.08
GGGTGCACGTGAGCTA | 0.16
GGTGGCACGTGTCTGA | -0.08
AGTTTCACGTGACCGG | 0.51
CTGCGCACGTGGTGAG | -0.14

Sequence | relative binding free energy [kcal/mol]
GGTGACACGTGGGCTG | -0.09
TAGAGCACGTGTGTGG | -0.03
CAGTTCACGTGTGGGG | 0.29
TATATCACGTGGTACA | 0.18
AGGTTCACGTGGACGT | 0.09
TACGTCACGTGGTGAT | 0.03
AAATTCACGTGAATGA | 0.43
AGTAGCACGTGTAGAA | -0.02
AGTTGCACGTGGCGTA | -0.08
TAATTCACGTGCTTTG | 0.19
ATGAGCACGTGTGGTA | -0.11
GGTTGCACGTGTATTT | 0.16
AGGTGCACGTGGTCAT | -0.2
TCTTGCACGTGTTGGA | 0.04
TGGTTCACGTGAGAAT | 0.37
ACAGTCACGTGGGAGT | -0.09
GGTGTCACGTGGGGCA | 0.03
AAAGGCACGTGCGGTT | -0.09
AGTTCCACGTGTAAGG | 0.19
CATTTCACGTGTTGTG | 0.21
TCTGTCACGTGTAGAG | 0.1
AGAAGCACGTGCGTGT | -0.23
CGAGGCACGTGTTTGG | -0.08

Sequence | relative binding free energy [kcal/mol]
GAATTCACGTGAGTTG | 0.52
TTAGTCACGTGAGAGA | 0.33
GGAAGCACGTGGGTCG | -0.26
TGAATCACGTGGTTCT | 0.15
GGTAACACGTGATGAT | 0.23
GAGCGCACGTGGAGGG | -0.15
ATCGGCACGTGTTGGA | -0.04
TATGGCACGTGAAATT | 0.26
TTGTCCACGTGGTGGG | -0.03
ATGGTCACGTGGGGAC | -0.02
AAAAACACGTGTGGTA | 0.07
AGGGACACGTGTGCAT | 0
GCTGGCACGTGAGAGG | 0.08
TGCTTCACGTGTTAAG | 0.21
ATCGACACGTGGAAGG | 0.24
CAATGCACGTGTTAGT | 0.06
CACGTCACGTGGCGGG | -0.01
GGAGGCACGTGCGCTG | -0.12
ACTTTCACGTGTGGCG | 0.22
GTGTGCACGTGAGAGA | 0.21
GCTGGCACGTGGGGTC | -0.24
CGGGGCACGTGGTTGC | -0.22
GGGCGCACGTGTTGAA | -0.04

Sequence | relative binding free energy [kcal/mol]
GTGAGCACGTGTCTTG | -0.02
AGACGCACGTGGAGGT | -0.11
GAGATCACGTGAGAGG | 0.31
TCTTGCACGTGCGTTT | -0.05
GTAATCACGTGGTGTG | 0.11
TATGACACGTGGTGGA | -0.04
GTCTACACGTGGGGTT | 0.08
AAAGGCACGTGAGTTG | 0.27
GAGCTCACGTGGGTTG | 0.13
TTAGGCACGTGGTACA | -0.14
ATAGTCACGTGGGGGA | -0.04
AGAATCACGTGGGTTA | 0
ATTGTCACGTGTCGCT | 0.11
GTGCGCACGTGGGGTG | -0.25
GTTTACACGTGTAAAT | 0.43
GCGTTCACGTGGGAGG | 0.31
TTGATCACGTGAGCGT | 0.37
GACAACACGTGGGGGG | -0.02
GTACTCACGTGTGGTA | 0.21
GGGGGCACGTGACCGT | 0
GAAATCACGTGTGGCT | 0.38
CGTTGCACGTGTAGAG | 0.14
TGAAACACGTGGGGCA | -0.1

Sequence | relative binding free energy [kcal/mol]
AAGCGCACGTGGGGCT | -0.17
CGTTGCACGTGGGGAT | -0.05
TCTTGCACGTGTTGTT | 0.04
TAATTCACGTGCGTTA | 0.07
GGGAGCACGTGGGATT | -0.05
AGTCACACGTGTAAGT | 0.15
GGAAGCACGTGCGGGC | 0.03
AAATGCACGTGGTCGT | -0.07
GTCAGCACGTGGTACG | -0.02
GTGCTCACGTGCTGTT | 0.2
TAAAACACGTGTGTGA | -0.02
CTTTGCACGTGATAGT | 0.06
CTTTACACGTGCGTTG | 0.19
TTGTTCACGTGCAATT | 0.43
GTGTCCACGTGGTCGG | -0.14
TATAGCACGTGGGTAG | -0.18
AAGGGCACGTGAAGGT | 0.13
TGGAACACGTGGAATT | 0.16
TTGAACACGTGCAGGG | 0.01
GCTAGCACGTGGAGGT | -0.21
TTTTGCACGTGCAAGC | 0.11
TGTAGCACGTGTAGTT | 0.03
GGTATCACGTGCGTAA | 0.11
